This is one part of the list.

Data on 195 variants can be found in a collection of fitness landscapes (doi:10.1126/science.1257360).

B1: PhoQ; a variant is named by its letters at X, in order, P23837 (parent)
chain: MKKLLRLFFPLSLRVRFLLATAAVVLVLSLAYGMVALIGYSVSFDKTTFRLLRGESNLFYTLAKWENNKLHVELPENIDKQSPTMTLIYDENGQLLWAQRDVPWLMKMIQPDWLKSNGFHEIEADVNDTSLLLSGDHSIQQQLQEVREDDDDAEMTHSVAVNVYPATSRMPKLTIVVVDTIPVELKSSYMVWSWFIYVLSANLLLVIPLLWVAAWWSLRPIEALAKEVRELEEHNRELLNPATTRELTSLVRNLNRLLKSERERYDKYRTTLTDLTHSLKTPLXXLQXXLRSLRSEKMSVSDAEPVMLEQISRISQQIGYYLHRASMRGGTLLSRELHPVAPLLDNLTSALNKVYQRKGVNISLDISPEISFVGEQNDFVEVMGNVLDNACKYCLEFVEISARQTDEHLYIVVEDDGPGIPLSKREVIFDRGQRVDTLRPGQGVGLAVAREITEQYEGKIVAGESMLGGARMEVIFGRQHSAPKDE

The variants in this assay derive from B1. Briefly: enrichment ratio after two sorts for PhoP signalling (ratio (wild type AVST 3.29)); higher = more functional. To be noted: with PhoP (E. coli).
For the variant LPKA, the enrichment ratio was not above 0.25.

Turning to YSAF, the enrichment ratio was not above 0.25.

On to RNFN, for which the enrichment ratio was not above 0.25.

For the variant SYVH, the enrichment ratio is not above 0.25.

Regarding TNAS, the enrichment ratio stood at 13.9.

In the case of ETEG, the enrichment ratio was not above 0.25.

On to KYVP, for which the enrichment ratio is not above 0.25.

On to KIDI, for which the enrichment ratio was not above 0.25.

On to FEMY, for which the enrichment ratio was not above 0.25.

As for DSTD, the enrichment ratio is not above 0.25.

IDFF: the enrichment ratio is not above 0.25.

As for RLCA, the enrichment ratio is not above 0.25.

For the variant AMVA, the enrichment ratio is not above 0.25.

Take GVVI: the enrichment ratio is not above 0.25.

As to SPGN, the enrichment ratio is not above 0.25.

For TICL, the enrichment ratio was found to be 1.53.

As to FCVR, the enrichment ratio was not above 0.25.

Consider TRLS, for which the enrichment ratio came out at 6.8.

On to NFSH, for which the enrichment ratio was not above 0.25.

For the variant GDRA, the enrichment ratio is not above 0.25.

With LENK, the enrichment ratio was not above 0.25.

With YTEF, the enrichment ratio is not above 0.25.

For RANN, the enrichment ratio is not above 0.25.

With YHGA, the enrichment ratio is not above 0.25.

In the case of HQAP, the enrichment ratio is not above 0.25.

For the variant DFRA, the enrichment ratio was not above 0.25.

Consider VHLT, for which the enrichment ratio was not above 0.25.

For the variant GWHW, the enrichment ratio is not above 0.25.

With ASYH, the enrichment ratio stood at 0.342.

Take SQIV: the enrichment ratio worked out at 5.01.

WELV: the enrichment ratio was 2.4.

Take YKYW: the enrichment ratio is not above 0.25.

QGMI: the enrichment ratio amounted to 19.9.

Regarding MDNP, the enrichment ratio is not above 0.25.

On to THTW, for which the enrichment ratio was not above 0.25.

On to YQYE, for which the enrichment ratio is not above 0.25.

On to WKES, for which the enrichment ratio was not above 0.25.

Turning to YFSD, the enrichment ratio is not above 0.25.

As to MASF, the enrichment ratio worked out at 2.55.

With PITK, the enrichment ratio was not above 0.25.

For the variant LYKR, the enrichment ratio was not above 0.25.

Consider VQTK, for which the enrichment ratio was not above 0.25.

With IPAW, the enrichment ratio is not above 0.25.

For RGDQ, the enrichment ratio is not above 0.25.

Take NYGT: the enrichment ratio was not above 0.25.

For RHCV, the enrichment ratio is not above 0.25.

On to YIHR, for which the enrichment ratio was not above 0.25.

On to VDGG, for which the enrichment ratio was not above 0.25.

On to HTMR, for which the enrichment ratio was not above 0.25.

Consider KHNN, for which the enrichment ratio is not above 0.25.

On to LDMK, for which the enrichment ratio is not above 0.25.

As for IMKY, the enrichment ratio is not above 0.25.

For WEYG, the enrichment ratio is not above 0.25.

Turning to ACIK, the enrichment ratio is not above 0.25.

As to NQGG, the enrichment ratio was not above 0.25.

As for TTKH, the enrichment ratio is not above 0.25.

For the variant PQDY, the enrichment ratio was not above 0.25.

In the case of GESD, the enrichment ratio was not above 0.25.

On to HSEN, for which the enrichment ratio was not above 0.25.

On to PCIP, for which the enrichment ratio was not above 0.25.

Take AFDY: the enrichment ratio was not above 0.25.

On to MENK, for which the enrichment ratio was not above 0.25.

For WQGC, the enrichment ratio was not above 0.25.

Turning to TSWY, the enrichment ratio came out at 14.1.

For the variant IIVQ, the enrichment ratio is not above 0.25.

In the case of SCCK, the enrichment ratio turned out to be 14.3.

WPMK: the enrichment ratio was not above 0.25.

With MHCS, the enrichment ratio is not above 0.25.

Turning to IPAQ, the enrichment ratio is not above 0.25.

Turning to VGWS, the enrichment ratio is not above 0.25.

DCVG: the enrichment ratio was not above 0.25.

As to FAST, the enrichment ratio was not above 0.25.

For the variant FTFT, the enrichment ratio was not above 0.25.

Take FTQN: the enrichment ratio was not above 0.25.

Take HNSR: the enrichment ratio is not above 0.25.

As for TVWS, the enrichment ratio was 1.2.

On to TLVL, for which the enrichment ratio is not above 0.25.

Consider KTTI, for which the enrichment ratio was not above 0.25.

Take WNWQ: the enrichment ratio is not above 0.25.

In the case of VWPF, the enrichment ratio was not above 0.25.

For NFCE, the enrichment ratio was not above 0.25.

DLTY: the enrichment ratio was not above 0.25.

Regarding WIRL, the enrichment ratio was not above 0.25.

Turning to TDLW, the enrichment ratio is not above 0.25.

Regarding WQTD, the enrichment ratio is not above 0.25.

As to MIAV, the enrichment ratio came out at 11.2.

As to WQNL, the enrichment ratio was not above 0.25.

For RSDS, the enrichment ratio was not above 0.25.

Take DSPI: the enrichment ratio is not above 0.25.

In the case of FIKC, the enrichment ratio was not above 0.25.

Regarding VPRN, the enrichment ratio was not above 0.25.

With KDFP, the enrichment ratio is not above 0.25.

Turning to NGAQ, the enrichment ratio is not above 0.25.

For the variant TMLL, the enrichment ratio is 1.48.

Regarding RCWK, the enrichment ratio was not above 0.25.

With PRFP, the enrichment ratio was not above 0.25.

Take VRIN: the enrichment ratio is not above 0.25.

Take MMHF: the enrichment ratio was not above 0.25.

NVFG: the enrichment ratio is not above 0.25.

For the variant KGHG, the enrichment ratio is not above 0.25.

As to IYCE, the enrichment ratio is not above 0.25.

Take SIIC: the enrichment ratio is not above 0.25.

For the variant AITW, the enrichment ratio was found to be 6.06.

With QDFP, the enrichment ratio is not above 0.25.

In the case of IRKI, the enrichment ratio is not above 0.25.

On to REYK, for which the enrichment ratio was not above 0.25.

For TMPP, the enrichment ratio is not above 0.25.

For PCMQ, the enrichment ratio is not above 0.25.

For the variant LSYD, the enrichment ratio is not above 0.25.

Turning to YFVA, the enrichment ratio was not above 0.25.

Take IFNA: the enrichment ratio is not above 0.25.

Consider QHRN, for which the enrichment ratio is not above 0.25.

As for YWQN, the enrichment ratio was not above 0.25.

For FQMD, the enrichment ratio is not above 0.25.

As to NEMP, the enrichment ratio was not above 0.25.

Turning to TRIK, the enrichment ratio is not above 0.25.

In the case of SIMV, the enrichment ratio came out at 13.6.

In the case of HSMQ, the enrichment ratio came out at 9.41.

Regarding RNMD, the enrichment ratio is not above 0.25.

EYKD: the enrichment ratio is not above 0.25.

As to PSFR, the enrichment ratio was not above 0.25.

NQHS: the enrichment ratio is not above 0.25.

On to IAGI, for which the enrichment ratio was not above 0.25.

As for IRSI, the enrichment ratio is not above 0.25.

With AQHC, the enrichment ratio was not above 0.25.

As for GYLC, the enrichment ratio came out at 0.277.

Turning to RMDQ, the enrichment ratio is not above 0.25.

Consider GTHQ, for which the enrichment ratio is not above 0.25.

With PESE, the enrichment ratio is not above 0.25.

For IGGH, the enrichment ratio is not above 0.25.

Regarding LRPK, the enrichment ratio was not above 0.25.

Turning to IDTK, the enrichment ratio was not above 0.25.

Take DHDK: the enrichment ratio was not above 0.25.

In the case of LYRD, the enrichment ratio was not above 0.25.

As for SESS, the enrichment ratio amounted to 13.9.

GKHG: the enrichment ratio is not above 0.25.

MLMW: the enrichment ratio was not above 0.25.

In the case of RNTG, the enrichment ratio was not above 0.25.

With GRFS, the enrichment ratio was not above 0.25.

For the variant MMVQ, the enrichment ratio is not above 0.25.

On to QIVG, for which the enrichment ratio is not above 0.25.

For SDAM, the enrichment ratio was determined as 2.28.

In the case of DQWM, the enrichment ratio is not above 0.25.

Regarding GWHF, the enrichment ratio was not above 0.25.

For DLLW, the enrichment ratio is not above 0.25.

Consider CTFD, for which the enrichment ratio was not above 0.25.

Consider AWNP, for which the enrichment ratio is not above 0.25.

Take RWVR: the enrichment ratio is not above 0.25.

For EGLC, the enrichment ratio is not above 0.25.

TQWW: the enrichment ratio is not above 0.25.

ESHH: the enrichment ratio is not above 0.25.

Consider TLQF, for which the enrichment ratio was 15.7.

For the variant RCHL, the enrichment ratio is not above 0.25.

For YCQS, the enrichment ratio is not above 0.25.

As to IRSA, the enrichment ratio was not above 0.25.

For the variant EIFI, the enrichment ratio is not above 0.25.

For the variant SNSC, the enrichment ratio is 8.

For DTEE, the enrichment ratio is not above 0.25.

On to HKLK, for which the enrichment ratio was not above 0.25.

Take PLVW: the enrichment ratio is not above 0.25.

In the case of LTYK, the enrichment ratio was not above 0.25.

Take QSLV: the enrichment ratio came to 1.11.

Turning to FLCS, the enrichment ratio is not above 0.25.

Turning to FPRC, the enrichment ratio was not above 0.25.

As for WHQR, the enrichment ratio is not above 0.25.

For SMVA, the enrichment ratio was determined as 0.7.

For HRGC, the enrichment ratio is not above 0.25.

With ADPW, the enrichment ratio is not above 0.25.

As for DSID, the enrichment ratio was not above 0.25.

With NGWP, the enrichment ratio is not above 0.25.

On to THSK, for which the enrichment ratio was not above 0.25.

In the case of MHAK, the enrichment ratio was not above 0.25.

For the variant DDHS, the enrichment ratio is not above 0.25.

On to LDSP, for which the enrichment ratio is not above 0.25.

Take MRNP: the enrichment ratio was not above 0.25.

For DSLD, the enrichment ratio is not above 0.25.

On to KYDW, for which the enrichment ratio was not above 0.25.

Regarding ICYS, the enrichment ratio is not above 0.25.

Turning to RPKP, the enrichment ratio is not above 0.25.

As to QTNA, the enrichment ratio is not above 0.25.

On to PMFE, for which the enrichment ratio was not above 0.25.

As for HRNI, the enrichment ratio was not above 0.25.

Take WGEY: the enrichment ratio was not above 0.25.

On to KRPF, for which the enrichment ratio was not above 0.25.

Turning to RVAQ, the enrichment ratio was not above 0.25.

As to QCLM, the enrichment ratio is not above 0.25.

Take MEFC: the enrichment ratio came to 12.8.

Regarding MDQS, the enrichment ratio was not above 0.25.

Turning to SSRE, the enrichment ratio was not above 0.25.

Turning to KFWH, the enrichment ratio is not above 0.25.

On to AKTR, for which the enrichment ratio is not above 0.25.

With TVGC, the enrichment ratio is 6.28.

As for QTMD, the enrichment ratio is not above 0.25.

With HMKT, the enrichment ratio was not above 0.25.

With KMYW, the enrichment ratio was not above 0.25.
